Several values for one entry are separate records, joined by “and”; a condition that tells them apart may be missing. Equal entries are not always repeated. The whole screen tested about 110,000 compounds, of which about 230 (0.21%) showed an effect of 50% or more. This is one part of the list.
target: DPAP1 (Plasmodium falciparum, UniProt Q8IIJ9); experiment: primary screen, percent inhibition; read by cleavage of a fluorogenic dipeptide substrate; higher = more effect of the substance; set-up: species or system P. falciparum D10 trophozoite lysates; single well
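Also: 30 min substrate incubation versus DMSO and 10 µM JCP410 controls.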

DPAP1, sequence (Q8IIJ9 whole entry, looked up): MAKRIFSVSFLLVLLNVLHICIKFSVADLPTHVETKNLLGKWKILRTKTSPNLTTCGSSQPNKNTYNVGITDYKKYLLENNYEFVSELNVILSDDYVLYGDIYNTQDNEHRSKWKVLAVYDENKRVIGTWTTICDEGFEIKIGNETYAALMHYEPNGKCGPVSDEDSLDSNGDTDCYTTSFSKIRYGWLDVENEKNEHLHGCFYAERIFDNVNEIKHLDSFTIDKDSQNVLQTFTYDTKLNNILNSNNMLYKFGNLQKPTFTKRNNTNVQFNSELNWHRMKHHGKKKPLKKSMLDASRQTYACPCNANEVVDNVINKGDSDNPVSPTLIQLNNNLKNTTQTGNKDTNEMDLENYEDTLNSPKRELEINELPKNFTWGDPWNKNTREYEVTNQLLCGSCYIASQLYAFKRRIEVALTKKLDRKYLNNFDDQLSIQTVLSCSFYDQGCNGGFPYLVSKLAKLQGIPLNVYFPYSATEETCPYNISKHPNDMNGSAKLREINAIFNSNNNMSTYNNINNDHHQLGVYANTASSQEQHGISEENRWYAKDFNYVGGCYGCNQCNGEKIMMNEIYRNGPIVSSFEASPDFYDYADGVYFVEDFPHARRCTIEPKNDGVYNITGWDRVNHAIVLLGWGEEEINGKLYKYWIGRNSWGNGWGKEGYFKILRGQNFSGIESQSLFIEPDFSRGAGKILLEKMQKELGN

Structure (SMILES)	% Inhibition @ 10 uM
O=C1NC(=O)/C(=C/c2ccccc2OCc2ccccc2)S1	-4.18%
O=C(Nc1ccc(Cl)cc1)c1ccc2nc3ccccc3nc2c1	-3.79%
CCCc1[nH]nc2c1C(c1ccccc1)C(C#N)=C(N)O2 (stereo not shown)	0.673%
CN(C)CCCNC(=O)c1ccc(Cl)cc1Cl	-1.6%
FC(F)(F)c1ccc2nnc(-c3cccc(Cl)c3Cl)n2c1	-3.09%
Cc1ccc(N2CCN(CCCCN3C(=O)C4CCCN4C3=O)CC2)cc1 (stereo not shown)	-1.38%
CCN1CCN(c2sc(S(=O)(=O)CC)nc2S(=O)(=O)c2ccc(Cl)cc2)CC1	-4.04%
N=c1oc2ccc([N+](=O)[O-])cc2cc1C(N)=O	4.88%
Cc1ccccc1N(CC(=O)Nc1ccc2c(c1)OCO2)S(=O)(=O)c1ccccc1	-1.55% and 1.02%
C(=C\c1cc(-c2ccccc2)[nH]n1)/c1ccccc1	3.01%
COc1ccc(NC(=O)c2ccc(OC)c(OC)c2)c(OC)c1	13.5%
Cc1cccn2c(=O)c(/C=C(\C#N)C(=O)NCCCOC(C)C)c(Oc3ccccc3)nc12	0.101%
CCCCOc1ccc(C(=O)Nc2cc(C)ccn2)cc1	5.98%
COc1cc(OC)c(OC)cc1CN1CCC(O)CC1	3.1%
CCN1CCN(Cc2ccccc2)CC1	3.9%
Nc1cccc(-c2cc(C(=O)O)c3cc(Br)ccc3n2)c1	1.59%
CC(C)CC(NC(=O)c1ccc(NC(=O)NCCc2c[nH]c3ccccc23)cc1)C(=O)NCC#N (stereo not shown)	-11%
CCc1nc2cccnc2n1-c1ccc(C(=O)N2CCN(C(=O)c3ccco3)CC2)cc1	-3.29%
CC(C)(C)S(=O)(=O)c1ccc(N)nc1	-0.0372%
Cc1ccccc1CSc1nnc(-c2ccccc2)c(O)n1	-0.0626%
COc1ccc(S(=O)(=O)N2CCN(Cc3cc(OC)c(OC)cc3OC)CC2)cc1	-1.2%
O=S(=O)(NCC1CCCCC1)c1ccc(-n2cnnn2)cc1	-4.67%
Cc1ccnc(NS(=O)(=O)c2ccc(Br)cc2)c1	-2.03%
CC(C)c1ccc(CN(C(=O)c2cc(=O)c3ccccc3o2)C2CCS(=O)(=O)C2)cc1 (stereo not shown)	1.9%
Cc1cccc(Oc2nc3c(C)cccn3c(=O)c2/C=C(\C#N)C(=O)N2CCCCC2)c1C	-5.1%
COc1ccc(C(=O)c2nc3c(n2O)CCCC3)cc1OC	-5.51%
c1ccc(CCSCc2nc3ccccc3[nH]2)cc1	7.77%
CCOC(=O)C1=C(C)NC(=O)N(C(C)=O)C1c1cccc(Oc2ccccc2)c1 (stereo not shown)	-5.63%
